153 variants from a collection of fitness landscapes (doi:10.1126/science.1257360) can be followed below.

The other results are listed elsewhere or left out.

B1: PhoQ; a variant is named by its letters at X, in order, P23837 (parent)
chain: MKKLLRLFFPLSLRVRFLLATAAVVLVLSLAYGMVALIGYSVSFDKTTFRLLRGESNLFYTLAKWENNKLHVELPENIDKQSPTMTLIYDENGQLLWAQRDVPWLMKMIQPDWLKSNGFHEIEADVNDTSLLLSGDHSIQQQLQEVREDDDDAEMTHSVAVNVYPATSRMPKLTIVVVDTIPVELKSSYMVWSWFIYVLSANLLLVIPLLWVAAWWSLRPIEALAKEVRELEEHNRELLNPATTRELTSLVRNLNRLLKSERERYDKYRTTLTDLTHSLKTPLXXLQXXLRSLRSEKMSVSDAEPVMLEQISRISQQIGYYLHRASMRGGTLLSRELHPVAPLLDNLTSALNKVYQRKGVNISLDISPEISFVGEQNDFVEVMGNVLDNACKYCLEFVEISARQTDEHLYIVVEDDGPGIPLSKREVIFDRGQRVDTLRPGQGVGLAVAREITEQYEGKIVAGESMLGGARMEVIFGRQHSAPKDE

In the experiment the parent is B1. Description: enrichment ratio after two sorts for PhoP signalling (ratio (wild type AVST 3.29)); higher = more functional. The note with it: with PhoP (E. coli).
As to TRNT, the enrichment ratio was no more than 0.25. With IEQA, the enrichment ratio is no more than 0.25. The figure for PDWW is no more than 0.25; for CMLS it is no more than 0.25; for LKFN it is no more than 0.25.

Take SQGN: the enrichment ratio amounted to 0.358. The figure for TYVL is no more than 0.25; for TMYP it is no more than 0.25; for FVLL it is 4.64. The figure for QIRS is no more than 0.25. With TAYS, the enrichment ratio was determined as 6.09. The same measure for SFDF: no more than 0.25; for GFIQ: no more than 0.25. The figure for YMKY is no more than 0.25; for MAKW it is no more than 0.25; for TLQW it is 5.79. The same measure for TNHD: no more than 0.25; for IGGD: no more than 0.25; for PCSD: 0.281. As for DRKD, the enrichment ratio was no more than 0.25.

For PAHD, the enrichment ratio is no more than 0.25.

Consider GLRN, for which the enrichment ratio is no more than 0.25. The figure for SGCQ is 6.02; for GAPW it is no more than 0.25. Turning to GLES, the enrichment ratio was no more than 0.25. The same measure for LVWN: no more than 0.25; for RETG: no more than 0.25. The same measure for GDPV: no more than 0.25. The figure for NPAT is no more than 0.25; for SAIT it is no more than 0.25.

Turning to FFCW, the enrichment ratio was no more than 0.25. For the variant VAHQ, the enrichment ratio is no more than 0.25. The figure for MPHP is no more than 0.25; for FLIT it is no more than 0.25; for WPQA it is no more than 0.25. The figure for ITYL is no more than 0.25. The same measure for QWCP: no more than 0.25; for YGGW: no more than 0.25. Turning to KPFR, the enrichment ratio was 0.301. For the variant LLAH, the enrichment ratio was no more than 0.25. The same measure for AWQV: no more than 0.25. The figure for IEHP is no more than 0.25. Take TDGP: the enrichment ratio is no more than 0.25. The same measure for TEKF: no more than 0.25; for MKPE: no more than 0.25; for EMSA: no more than 0.25. The same measure for EKAM: no more than 0.25.

As to ISRW, the enrichment ratio is no more than 0.25.

As to HKIL, the enrichment ratio was no more than 0.25. The figure for TPRL is no more than 0.25; for VALL it is 10.5. The same measure for VVEL: no more than 0.25.

For FYCV, the enrichment ratio was 0.298.

With FIQF, the enrichment ratio was no more than 0.25. The figure for LRND is no more than 0.25; for QGQK it is no more than 0.25.

As for CQVF, the enrichment ratio was no more than 0.25. The figure for RIVL is no more than 0.25; for FQID it is no more than 0.25. The same measure for KVWF: no more than 0.25; for PPMH: no more than 0.25; for LQDY: no more than 0.25. The figure for NLYA is no more than 0.25. As to QHKC, the enrichment ratio is no more than 0.25. The figure for KTQF is no more than 0.25; for WSWS it is no more than 0.25. The same measure for IWFG: no more than 0.25. On to EEMA, for which the enrichment ratio is no more than 0.25. The same measure for IKNH: no more than 0.25. The figure for YEVE is no more than 0.25; for PMMF it is no more than 0.25; for QQVM it is no more than 0.25. The same measure for SIAF: 15.1; for ANQF: 1.01. For the variant ANLF, the enrichment ratio stood at 10.7. As for NNCI, the enrichment ratio is no more than 0.25. HRLF: the enrichment ratio is no more than 0.25. The same measure for QYSL: no more than 0.25. The same measure for RNAH: no more than 0.25; for AGQI: no more than 0.25; for FVCW: no more than 0.25.

Take GSLR: the enrichment ratio is no more than 0.25. On to CSIF, for which the enrichment ratio was no more than 0.25.

Take VHCY: the enrichment ratio was no more than 0.25. The same measure for WEAM: no more than 0.25; for RYYG: no more than 0.25. Regarding TKRA, the enrichment ratio is no more than 0.25. On to PAIN, for which the enrichment ratio is no more than 0.25. Regarding NQLH, the enrichment ratio is no more than 0.25. The figure for KWPC is no more than 0.25; for RKCP it is no more than 0.25; for FREL it is no more than 0.25. The figure for LYPQ is no more than 0.25; for EVKA it is no more than 0.25; for AAIV it is 8.6.

Turning to SHGG, the enrichment ratio is no more than 0.25. The figure for ELHH is no more than 0.25; for FTWA it is no more than 0.25; for QPFH it is no more than 0.25. The figure for NKAW is no more than 0.25; for LVCG it is no more than 0.25. The figure for YMND is no more than 0.25; for IDSD it is no more than 0.25; for YEAC it is no more than 0.25. Consider IRIR, for which the enrichment ratio was no more than 0.25. Consider AFKA, for which the enrichment ratio is no more than 0.25. The same measure for VPSG: no more than 0.25; for MQGN: 7.37; for YVEA: no more than 0.25. The figure for VQAI is no more than 0.25; for ERLN it is no more than 0.25. The same measure for GPFH: no more than 0.25; for NDFT: no more than 0.25; for EERV: no more than 0.25.

As to NMNM, the enrichment ratio was no more than 0.25.

For the variant SVYM, the enrichment ratio is 0.325. The figure for YLII is no more than 0.25. The same measure for IEQL: no more than 0.25.

For the variant WGCE, the enrichment ratio was no more than 0.25.

Regarding KRAY, the enrichment ratio is no more than 0.25. On to HLMR, for which the enrichment ratio is no more than 0.25. The figure for DLTM is no more than 0.25. The figure for GYPC is no more than 0.25; for EAAS it is no more than 0.25.

As to GFLI, the enrichment ratio was no more than 0.25. The same measure for RKWS: no more than 0.25; for HRIK: no more than 0.25. The figure for ALRT is no more than 0.25. The same measure for AQFK: no more than 0.25; for KYGQ: no more than 0.25. For the variant QHSN, the enrichment ratio was no more than 0.25. The same measure for TYAF: no more than 0.25; for MHNF: no more than 0.25; for DICE: no more than 0.25. The figure for KQFL is no more than 0.25; for KKAA it is no more than 0.25. The figure for EAIM is no more than 0.25; for DDFN it is no more than 0.25.

As for KRMN, the enrichment ratio is no more than 0.25. The same measure for ECSL: 0.598; for QFAK: no more than 0.25. The same measure for NNLH: no more than 0.25; for LYAE: no more than 0.25; for PCSQ: no more than 0.25. Regarding EAYF, the enrichment ratio was no more than 0.25.

As to YRPF, the enrichment ratio was no more than 0.25. The same measure for KMTY: no more than 0.25.

On to KYKG, for which the enrichment ratio is no more than 0.25.

On to WLPY, for which the enrichment ratio is no more than 0.25. The same measure for LWSY: no more than 0.25; for LMKT: no more than 0.25; for MTKM: no more than 0.25.

Take RIKQ: the enrichment ratio is no more than 0.25.
